Test results: the supplement of paper PMC11417369
± gives the standard deviation of the averaged measurements. The list shows a part of the results.

test system: PfAP2-G AP2 domain (GST-tagged); assay: gcPBM binding intensity (ln(normalized median fluorescence intensity)); higher = stronger DNA binding
In short: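 The binding buffer was 1× PBS containing 1% milk, 0.2 mg/ml BSA, 0.5% salmon testes DNA and 0.03% Triton X-100. In it, GST-tagged P. falciparum DNA-binding domains expressed in E. coli were applied for 1 h to an Agilent 4 × 180k array of primer-extended double-stranded 36-bp intergenic genomic probes plus negative controls. Binding intensity, read with Alexa488 anti-GST antibody and a 488 nm scan, is the highest Masliner-normalised natural-log median intensity across replicate spots of either probe orientation.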

Sequence | gcPBM binding intensity (ln)
TATATATATATATATGCATGCCATATGATATATATA [TGCATGCA_site109] | 10.1 ± 0.67
CGTTTATTAAACTTGACACACACACCCCCACATATA [CACACA_site8151] | 11.1 ± 0.69
GATTATTATTATAAGGGTACAAATATTTAATAAAAA [XGTACX_site7144] | 11 ± 0.57
ATCCTCTTTTTAAGTTGTACAGGGTCGAAAAAAAAA [XGTACX_site6852] | 11.5 ± 0.89
CATGTCAAAATTATACGTACATATATAAGTTCCATT [XGTACX_site6331] | 11.6 ± 0.8
AAAAAAAAATAAAAAAGTACATTCATTTTATAAGAT [XGTACX_site3507] | 11.4 ± 1
ATAAATACAGATATTACACACTTCTTATTCTAAGAA [CACACA_site5640] | 9.89 ± 0.071
TATTTTATATAAAGGTGTACTTATACAAAAATATAT [XGTACX_site7435] | 11.5 ± 0.88
TATACAGGAATATTTTTACACACTAATAATTATAAA [CACACA_site8477] | 9.95 ± 0.13
TATTTACAACAAATTTAATTATTTTTAACTTATAAA [GTGCAC_negctrl_site259] | 9.44 ± 0.21
AGATAGCTATTAAAAAGTACAAAAAAATATATATAT [XGTACX_site6289] | 11.1 ± 0.75
GGTTTGAATTTTTAAGTGCATATAACATAAATGAAA | 10.1 ± 0.3
CATACATACAAACACACACACATATATATATATATA [CACACA_site43] | 9.96 ± 0.23
TTATATTATATATATATTATATATATGTATGCATAA [TGCATGCA_negctrl_site481] | 9.72 ± 0.15
AAATATTTGTGTGGTTGTACTATAATGATAAAAATA [XGTACX_site7703] | 11.1 ± 0.56
TTTTTTCAAATTATTCGATATGTAAAAAAATAAAAT [GTGCAC_negctrl_site241] | 9.85 ± 0.11
TTTTTTTTTTTTGAGTGTACAAGATTGTTGTTCCAA [XGTACX_site6120] | 11 ± 0.88
TACATAAACATTTATACACACATTATAAATACATAT [CACACA_site4386] | 9.945 ± 0.035
ACAATTTTAAAATGAACACACATGTTTTTCTTACTT [CACACA_site1014] | 9.96 ± 0.13

Sequence | gcPBM binding intensity (ln)
ATTTTCTATTTTATTTGTACGTAATTTAATTTTTTT [XGTACX_site3609] | 11.4 ± 0.71
TTTTTTTTCTAAATTATATGAAAATATATGTTATGT [GTGCAC_negctrl_site85] | 9.65 ± 0.099
AAGTAATTTGTTGACACACACACACGCATACCTATA [CACACA_site7140] | 10.4 ± 0.23
TCCCAATTTCTATCCTGTACAGACATAAATATATAC [XGTACX_site5937] | 11 ± 0.51
ATAAAGATTAATAAAATAAAATTCCGCAAACATATA [CACACA_negctrl_site244] | 9.955 ± 0.064
TTTTGAAATTTTTGTGTTTTTCCTTTTTATTTTATA [CACACA_negctrl_site1740] | 9.82 ± 0.11
ATAAATCCATGTAACTGTACTTTTTTTTTTTTTTTT [XGTACX_site7373] | 11.6 ± 0.91
ACTTATGATTTATTTTGTACATATATACTATTCCTG [XGTACX_site5275] | 10.8 ± 0.36
GTTTTAAAACAAATATGTACACATAATATAGGAAAG [XGTACX_site1803] | 11.7 ± 0.82
ATTATATATATATATATATATATATATATATTATAT [CACACA_negctrl_site234] | 9.54 ± 0.26
AATGTAATATAAATATGTACATATAAACTATATATA [XGTACX_site6871] | 11.2 ± 0.8
ACAAATACTAACAACGCATGTAAGCCTACAATAAAT [TGCATGCA_site551] | 9.87 ± 0.042
GCTCCTTTTACCATCGCACACGATAAAAAAAAATAA [CACACA_site3255] | 10.5 ± 0.47
AAAGGGATAACACCAAAAAAAATAAAAATAAAAATA [GTGCAC_negctrl_site680] | 9.84 ± 0.028
CAAAAATAACGAGTCAAACACACATATATATATATA [CACACA_site2038] | 10.1 ± 0.35
TCAAGAATTTTAAAGAGTACATAAAACAATAATATA [XGTACX_site3923] | 11.4 ± 0.88
CATACATACATACATACACACATACATATGTATTTA [CACACA_site5384] | 10.5 ± 0.33
TATTTTATATTTCATTTGTTATTTTTCTTGGTTCTA [CACACA_negctrl_site33] | 9.75 ± 0.18
ATGCGTATACTAAGAACACACAAGTTACTTGGTGTT [CACACA_site1625] | 10.07 ± 0.028

Sequence | gcPBM binding intensity (ln)
ATTAATGATTTTTGTTGTACATTATTAATTTACATT [XGTACX_site544] | 11.1 ± 0.71
AGTTTCCATATGAGGTGTACATATATAATTTATTAT [XGTACX_site2369] | 11.6 ± 0.71
ACAAAATAAAGACACACACACAAACACAAAAAAATA [CACACA_site7568] | 10.4 ± 0.61
CAACACTTTCAAAAATGTACGTACAAATGTATTTTA [XGTACX_site6713] | 11.7 ± 0.76
TATGCACCCAGACACACACACACAACTAAAAAATAA [CACACA_site2567] | 10.5 ± 0.62
TTTGTAGATTTTGTAACACACACATATATATACATA [CACACA_site8757] | 10 ± 0.14
AAATTGTGTGAAATATATTAATATTATTATTATTAT [TGCATGCA_negctrl_site189] | 9.63 ± 0.32
TTTTACCACTAAAAATGTACAAAAAAAAAAAAAAAA [XGTACX_site4226] | 10.8 ± 0.88
CCTTGCATTTATTATACACACACAAAAAAATATATA [CACACA_site7964] | 10.3 ± 0.39
AAAATATAATATATTGCACACAAAAAGTGAATTATT [CACACA_site8489] | 9.965 ± 0.049
TACCATTATTTTAAGTGTACATACTAATTTATATAT [XGTACX_site6548] | 11.3 ± 0.83
TCTTTCTATTTATAATGTACTCAAAATTATTCTATA [XGTACX_site4867] | 11.3 ± 0.68
TTGCAAATATATGGTTGTACTCAAAAAAAAAAAAAA [XGTACX_site6975] | 11.6 ± 1.3
AATAATAATATATGTAGTACACATTTCCATTATGTT [XGTACX_site3708] | 11.6 ± 0.95
AAAAAAAAAAAAAAAACACACATTTCTTTTTCATAT [CACACA_site11] | 10.35 ± 0.078
TAATAGGAAATTATAGGTACACATACAAATAAATAA [XGTACX_site3587] | 11.3 ± 0.97
TTAATTATATATAAAAGTACTTATTTTTCCATATAA [XGTACX_site3033] | 11.2 ± 0.93
AGAAAAAAAAAACACACACACACACCCTCAATATAA [CACACA_site39] | 9.985 ± 0.007
